From the supplement of paper PMC8728848
This is one part of the list.

What was measured:
Experiment in all cases: glycan array binding signal (z-score within array); higher = stronger binding
Conditions in all cases: glycan notation: IUPAC condensed, linker removed
Fuc(a1-2)Gal = molecular target: Fuc(a1-2)Gal
Procedure, shortened: (§1)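 Columns mapping to the same glycan were averaged after glycan names were converted to IUPAC-condensed notation. The data come from 3228 arrays in the Consortium for Functional Glycomics database, limited to those with an available protein sequence. Binding is reported as a within-array Z-score averaged across arrays of one protein sequence and across linkers.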

Fuc(a1-2)Gal(b1-3)GalNAc = molecular target: Fuc(a1-2)Gal(b1-3)GalNAc
Procedure, shortened: as §1

[1] = molecular target: Fuc(a1-2)Gal(b1-3)GalNAc(a1-3)[Fuc(a1-2)]Gal(b1-4)Glc
Procedure, shortened: as §1

[2] = molecular target: Fuc(a1-2)Gal(b1-3)GalNAc(a1-3)[Fuc(a1-2)]Gal(b1-4)GlcNAc
Procedure, shortened: as §1

[3] = molecular target: Fuc(a1-2)Gal(b1-3)GalNAc(b1-3)Gal
Procedure, shortened: as §1

[4] = molecular target: Fuc(a1-2)Gal(b1-3)GalNAc(b1-3)Gal(a1-4)Gal(b1-4)Glc
Procedure, shortened: as §1

[5] = molecular target: Fuc(a1-2)Gal(b1-3)GalNAc(b1-4)[Neu5Ac(a2-3)]Gal(b1-4)Glc
Procedure, shortened: as §1

Fuc(a1-2)Gal(b1-3)GlcNAc = molecular target: Fuc(a1-2)Gal(b1-3)GlcNAc
Procedure, shortened: as §1

[6] = molecular target: Fuc(a1-2)Gal(b1-3)GlcNAc(b1-2)Man(a1-3)[Fuc(a1-2)Gal(b1-3)GlcNAc(b1-2)Man(a1-6)]Man(b1-4)GlcNAc(b1-4)GlcNAc
Procedure, shortened: as §1

[7] = molecular target: Fuc(a1-2)Gal(b1-3)GlcNAc(b1-2)Man(a1-3)[Fuc(a1-2)Gal(b1-3)GlcNAc(b1-2)Man(a1-6)]Man(b1-4)GlcNAc(b1-4)[Fuc(a1-6)]GlcNAc
Procedure, shortened: as §1

[8] = molecular target: Fuc(a1-2)Gal(b1-3)GlcNAc(b1-3)Gal(b1-4)Glc
Procedure, shortened: as §1

[9] = molecular target: Fuc(a1-2)Gal(b1-3)GlcNAc(b1-3)GalNAc
Procedure, shortened: as §1

[10] = molecular target: Fuc(a1-2)Gal(b1-3)GlcNAc(b1-3)[Fuc(a1-2)Gal(b1-3)GlcNAc(b1-6)]GalNAc
Procedure, shortened: as §1

[11] = molecular target: Fuc(a1-2)Gal(b1-3)GlcNAc(b1-3)[Gal(b1-4)GlcNAc(b1-6)]Gal(b1-4)Glc
Procedure, shortened: as §1

[12] = molecular target: Fuc(a1-2)Gal(b1-3)GlcNAc(b1-3)[Neu5Ac(a2-6)Gal(b1-4)GlcNAc(b1-6)]Gal(b1-4)Glc
Procedure, shortened: as §1

[13] = molecular target: Fuc(a1-2)Gal(b1-3)GlcNAc6S
Procedure, shortened: as §1

[14] = molecular target: Fuc(a1-2)Gal(b1-3)[Fuc(a1-4)]GlcNAc
Procedure, shortened: as §1

[15] = molecular target: Fuc(a1-2)Gal(b1-3)[Fuc(a1-4)]GlcNAc(b1-2)Man(a1-3)[Fuc(a1-2)Gal(b1-3)[Fuc(a1-4)]GlcNAc(b1-2)Man(a1-3)]Man(b1-4)GlcNAc(b1-4)GlcNAc
Procedure, shortened: as §1

[16] = molecular target: Fuc(a1-2)Gal(b1-3)[Fuc(a1-4)]GlcNAc(b1-2)Man(a1-3)[Fuc(a1-2)Gal(b1-3)[Fuc(a1-4)]GlcNAc(b1-2)Man(a1-6)]Man(b1-4)GlcNAc(b1-4)[Fuc(a1-6)]GlcNAc(b1-4)[Fuc(a1-6)]GlcNAc
Procedure, shortened: as §1

[17] = molecular target: Fuc(a1-2)Gal(b1-3)[Fuc(a1-4)]GlcNAc(b1-3)[Fuc(a1-3)[Gal(b1-4)]GlcNAc(b1-6)]Gal(b1-4)Glc
Procedure, shortened: as §1

[18] = molecular target: Fuc(a1-2)Gal(b1-3)[Fuc(a1-4)]GlcNAc(b1-3)[Gal(b1-4)GlcNAc(b1-6)]Gal(b1-4)Glc
Procedure, shortened: as §1

Fuc(a1-2)Gal(b1-4)Glc = molecular target: Fuc(a1-2)Gal(b1-4)Glc
Procedure, shortened: as §1

Fuc(a1-2)Gal(b1-4)Glc6S = molecular target: Fuc(a1-2)Gal(b1-4)Glc6S
Procedure, shortened: as §1

Fuc(a1-2)Gal(b1-4)GlcNAc = molecular target: Fuc(a1-2)Gal(b1-4)GlcNAc
Procedure, shortened: as §1

[19] = molecular target: Fuc(a1-2)Gal(b1-4)GlcNAc(b1-2)Man
Procedure, shortened: as §1

[20] = molecular target: Fuc(a1-2)Gal(b1-4)GlcNAc(b1-2)Man(a1-3)[Fuc(a1-2)Gal(b1-4)GlcNAc(b1-2)Man(a1-6)]Man(b1-4)GlcNAc(b1-4)GlcNAc
Procedure, shortened: as §1

[21] = molecular target: Fuc(a1-2)Gal(b1-4)GlcNAc(b1-2)Man(a1-3)[Fuc(a1-2)Gal(b1-4)GlcNAc(b1-2)Man(a1-6)]Man(b1-4)GlcNAc(b1-4)[Fuc(a1-6)]GlcNAc
Procedure, shortened: as §1

[22] = molecular target: Fuc(a1-2)Gal(b1-4)GlcNAc(b1-2)[Fuc(a1-2)Gal(b1-4)GlcNAc(b1-4)]Man(a1-3)[Fuc(a1-2)Gal(b1-4)GlcNAc(b1-2)Man(a1-6)]Man(b1-4)GlcNAc(b1-4)GlcNAc
Procedure, shortened: as §1

[23] = molecular target: Fuc(a1-2)Gal(b1-4)GlcNAc(b1-3)Gal(b1-4)GlcNAc
Procedure, shortened: as §1

[24] = molecular target: Fuc(a1-2)Gal(b1-4)GlcNAc(b1-3)Gal(b1-4)GlcNAc(b1-2)Man(a1-3)[Fuc(a1-2)Gal(b1-4)GlcNAc(b1-3)Gal(b1-4)GlcNAc(b1-2)Man(a1-6)]Man(b1-4)GlcNAc(b1-4)GlcNAc
Procedure, shortened: as §1

B1: GS13846A-bth-444-19-444 (Bacteroides thetaiotaomicron) (protein)
chain: SCENEFDVSDKADSLISVTVNTLNNQAAYNVGETAQAELWIQRGGLKDASGKVQFVVDPLLLDSLNQEDKTNYELLPENCYEMTNTEFTVDKNELCGYITYHPEKILALSAYNETKYVLPLRLISNDLAINPARNTSFLAFTILEPIVHISNAGVYNINPDLTSTMDIQIGVPFTNKWDILCNLTEDLSLIDEYNQINKVNFTLLPENAYTAPESVTLQEGVSQITASYQLKNNLVPGNYILPIKIGSITASQGGVPNNSLVIDEESNVLFCIVKEGNKINKSGWEVIECSSEHAGNEATYMIDDNESTYWHCKFKNEAGSSVPPFHFIIDMKKEITIAQIDLLNRGDGAANNIKWVEFYASNNNSEWDKIGAGDFNDEGTRATFRYYVKSTKARYLKLIIPEGYGNNCPPAAIRELTVYGLEGNN
- glycan array binding signal (z-score) (Fuc(a1-2)Gal): -0.378
- glycan array binding signal (z-score) (Fuc(a1-2)Gal(b1-3)GalNAc): -0.247
- glycan array binding signal (z-score) [1]: -0.228
- glycan array binding signal (z-score) [2]: -0.335
- glycan array binding signal (z-score) [3]: 0.688
- glycan array binding signal (z-score) [4]: -0.194
- glycan array binding signal (z-score) [5]: -0.273
- glycan array binding signal (z-score) (Fuc(a1-2)Gal(b1-3)GlcNAc): -0.287
- glycan array binding signal (z-score) [6]: 0.682
- glycan array binding signal (z-score) [7]: -0.352
- glycan array binding signal (z-score) [8]: -0.215
- glycan array binding signal (z-score) [9]: -0.177
- glycan array binding signal (z-score) [10]: -0.101
- glycan array binding signal (z-score) [11]: -0.129
- glycan array binding signal (z-score) [12]: -0.312
- glycan array binding signal (z-score) [13]: 0.028
- glycan array binding signal (z-score) [14]: -0.171
- glycan array binding signal (z-score) [15]: -0.423
- glycan array binding signal (z-score) [16]: 0.113
- glycan array binding signal (z-score) [17]: -0.365
- glycan array binding signal (z-score) [18]: -0.035
- glycan array binding signal (z-score) (Fuc(a1-2)Gal(b1-4)Glc): -0.176
- glycan array binding signal (z-score) (Fuc(a1-2)Gal(b1-4)Glc6S): -0.399
- glycan array binding signal (z-score) (Fuc(a1-2)Gal(b1-4)GlcNAc): -0.474
- glycan array binding signal (z-score) [19]: -0.245
- glycan array binding signal (z-score) [20]: 0.384
- glycan array binding signal (z-score) [21]: 0.194
- glycan array binding signal (z-score) [22]: -0.079
- glycan array binding signal (z-score) [23]: -0.352
- glycan array binding signal (z-score) [24]: -0.07
